Source: patent publication US12583836B2 (Anaxis Pharma Pty Ltd, priority 2020, dated 2026)

How the values were obtained:
MLKL (full length) = biological target: T1, MLKL (full length) (Homo sapiens, UniProt Q8NB16); test: KINOMEscan binding assay, MLKL; conditions: equilibrium dissociation constant, class symbols
T1 construct: purchased DiscoverX (KINOMEscan service); host or cells: E. coli BL21-derived (T7 phage) or HEK293
T1 sequence (Q8NB16 1-471): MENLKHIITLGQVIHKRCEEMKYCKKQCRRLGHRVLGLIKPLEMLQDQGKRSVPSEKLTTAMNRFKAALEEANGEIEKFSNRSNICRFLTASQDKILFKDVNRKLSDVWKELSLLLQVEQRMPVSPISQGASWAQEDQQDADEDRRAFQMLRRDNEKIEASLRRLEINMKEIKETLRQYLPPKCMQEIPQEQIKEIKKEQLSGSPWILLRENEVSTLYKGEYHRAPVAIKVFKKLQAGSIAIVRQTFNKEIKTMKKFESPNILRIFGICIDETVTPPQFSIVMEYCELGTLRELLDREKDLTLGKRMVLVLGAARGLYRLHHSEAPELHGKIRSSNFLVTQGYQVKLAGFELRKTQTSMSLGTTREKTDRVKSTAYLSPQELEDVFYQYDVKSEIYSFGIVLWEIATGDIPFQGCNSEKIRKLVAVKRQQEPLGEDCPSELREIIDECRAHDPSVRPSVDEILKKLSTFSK
Source text: The Hill Slope was set to −1.

RIP1 = biological target: T2, RIP1 (Homo sapiens, UniProt Q13546); test: KINOMEscan binding assay, RIP1; conditions: equilibrium dissociation constant, class symbols
T2 construct: purchased DiscoverX (KINOMEscan service); host or cells: E. coli BL21-derived (T7 phage) or HEK293
T2 sequence (Q13546 1-671): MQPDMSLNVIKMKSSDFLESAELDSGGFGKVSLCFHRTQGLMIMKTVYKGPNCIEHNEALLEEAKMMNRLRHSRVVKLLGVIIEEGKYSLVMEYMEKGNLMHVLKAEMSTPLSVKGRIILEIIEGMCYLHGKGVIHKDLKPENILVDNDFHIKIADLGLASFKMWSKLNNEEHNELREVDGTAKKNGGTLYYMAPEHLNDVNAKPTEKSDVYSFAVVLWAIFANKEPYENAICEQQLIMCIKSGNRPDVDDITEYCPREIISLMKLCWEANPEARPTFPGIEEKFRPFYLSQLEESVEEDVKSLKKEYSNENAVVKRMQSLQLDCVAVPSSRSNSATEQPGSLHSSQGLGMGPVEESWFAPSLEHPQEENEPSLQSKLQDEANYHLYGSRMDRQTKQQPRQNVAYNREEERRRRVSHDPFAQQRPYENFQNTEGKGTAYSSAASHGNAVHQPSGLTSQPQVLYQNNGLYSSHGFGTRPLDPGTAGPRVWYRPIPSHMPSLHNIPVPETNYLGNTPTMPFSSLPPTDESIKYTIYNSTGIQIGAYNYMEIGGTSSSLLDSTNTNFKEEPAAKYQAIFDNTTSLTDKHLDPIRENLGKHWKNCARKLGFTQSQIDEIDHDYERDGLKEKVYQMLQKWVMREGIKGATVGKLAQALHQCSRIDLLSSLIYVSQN

CC[C@H](Oc1cc(-c2n[nH]c(Nc3cnccn3)c2C(N)=O)ccc1NS(=O)(=O)CC(F)(F)F)c1ccc(F)cc1 (single isomer, unassigned) [Compound 250]
Kd (MLKL (full length)): 10 to 1000 nM

COC[C@H](Cc1cc(-c2n[nH]c(Nc3cnccn3)c2C(N)=O)ccc1NS(=O)(=O)C(F)F)c1ccc(F)cc1 (single isomer, unassigned) [Compound 272]
Kd (RIP1): > 30000 nM
Kd (MLKL (full length)): < 10 nM

CCS(=O)(=O)Nc1ccc(-c2n[nH]c(Nc3cnccn3)c2C(N)=O)cc1OCc1ccc(F)c(F)c1 [Compound 1, 3-(3-((3,4-difluorobenzyl)oxy)-4-(ethylsulfonamido)phenyl)-5-(pyrazin-2-ylamino)-1H-pyrazole-4-carboxamide]
Kd (RIP1): > 30000 nM
Kd (MLKL (full length)): < 10 nM

CCS(=O)(=O)Nc1ccc(-c2n[nH]c(Nc3cccnc3)c2C(N)=O)cc1OCc1ccc(F)cc1 [Compound 6, 3-(4-(ethylsulfonamido)-3-((4-fluorobenzyl)oxy)phenyl) 5-(pyridin-3-ylamino)-1H pyrazole-4-carboxamide]
Kd (RIP1): > 30000 nM
Kd (MLKL (full length)): 10 to 1000 nM

CCS(=O)(=O)Nc1ccc(-c2n[nH]c(Nc3cccc(C(F)(F)F)n3)c2C(N)=O)cc1OCc1ccc(F)cc1 [Compound 8, 3-(4-(ethylsulfonamido)-3-((4-fluorobenzyl)oxy)phenyl)-5-((6-(trifluoromethyl)pyridin-2-yl)amino)-1H-pyrazole-4-carboxamide]
Kd (RIP1): > 30000 nM
Kd (MLKL (full length)): 10 to 1000 nM

CCS(=O)(=O)Nc1ccc(-c2n[nH]c(Nc3cccc(OC)n3)c2C(N)=O)cc1OCc1ccc(F)cc1 [Compound 11, 3-(4-(ethylsulfonamido)-3-((4-fluorobenzyl)oxy)phenyl) 5-((6-methoxypyridin-2-yl)amino)-1H-pyrazole-4 carboxamide]
Kd (RIP1): > 30000 nM
Kd (MLKL (full length)): < 10 nM

CCS(=O)(=O)Nc1ccc(-c2n[nH]c(Nc3cncc(OC)n3)c2C(N)=O)cc1OCc1ccc(F)cc1 [Compound 15, 3-(4-(ethylsulfonamido)-3-((4-fluorobenzyl)oxy)phenyl) 5-((6-methoxypyrazin-2-yl)amino)-1H-pyrazole-4 carboxamide]
Kd (RIP1): > 30000 nM
Kd (MLKL (full length)): < 10 nM

CCS(=O)(=O)Nc1ccc(-c2n[nH]c(Nc3cncc(C(F)(F)F)n3)c2C(N)=O)cc1OCc1ccc(F)cc1 [Compound 17, 3-(4-(ethylsulfonamido)-3-((4-fluorobenzyl)oxy)phenyl) 5-((6-(trifluoromethyl)pyrazin-2 yl)amino)-1H-pyrazole-4 carboxamide]
Kd (RIP1): > 30000 nM
Kd (MLKL (full length)): < 10 nM

CCS(=O)(=O)Nc1ccc(-c2n[nH]c(Nc3cnccn3)c2C(N)=O)cc1Oc1ccc(F)cc1 [Compound 19, 3-(4-(ethylsulfonamido)-3-(4-fluorophenoxy)phenyl)-5-(pyrazin-2-ylamino)-1H-pyrazole-4-carboxamide]
Kd (RIP1): > 30000 nM
Kd (MLKL (full length)): < 10 nM

NC(=O)c1c(-c2ccc(NS(=O)(=O)CCC(F)F)cc2)n[nH]c1Nc1cnccn1 [Compound 23, 3-(4-((3,3-difluoropropyl)sulfonamido)phenyl)-5-(pyrazin-2-ylamino)-1H-pyrazole-4-carboxamide]
Kd (RIP1): > 30000 nM
Kd (MLKL (full length)): < 10 nM

CCS(=O)(=O)Nc1ccc(-c2n[nH]c(Nc3ccccn3)c2C(N)=O)cc1OCc1ccncc1 [Compound 27, 3-(4-(ethylsulfonamido)-3-(pyridin-4-ylmethoxy)phenyl)-5-(pyridin-2-ylamino)-1H-pyrazole-4-carboxamide]
Kd (RIP1): > 30000 nM
Kd (MLKL (full length)): < 10 nM

N#CCS(=O)(=O)Nc1ccc(-c2n[nH]c(Nc3cccc(C(F)(F)F)n3)c2C(N)=O)cc1 [Compound 29, 3-(4-((cyanomethyl)sulfonamido)phenyl)-5-((6-(trifluoromethyl)pyridin-2-yl)amino)-1H-pyrazole-4-carboxamide]
Kd (RIP1): > 30000 nM
Kd (MLKL (full length)): < 10 nM

CCS(=O)(=O)Nc1ccc(-c2n[nH]c(Nc3ccccn3)c2C(N)=O)cc1OCc1cccnc1 [Compound 31, 3-(4-(ethylsulfonamido)-3-(pyridin-3-ylmethoxy)phenyl)-5-(pyridin-2-ylamino)-1H-pyrazole-4-carboxamide]
Kd (RIP1): > 30000 nM
Kd (MLKL (full length)): < 10 nM

CCS(=O)(=O)Nc1ccc(-c2n[nH]c(Nc3cccc(C(F)(F)F)n3)c2C(N)=O)cc1OCc1cccnc1 [Compound 33, 3-(4-(ethylsulfonamido)-3-(pyridin-3-ylmethoxy)phenyl)-5-((6-(trifluoromethyl)pyridin-2-yl)amino)-1H-pyrazole-4-carboxamide]
Kd (RIP1): > 30000 nM
Kd (MLKL (full length)): 10 to 1000 nM

CCS(=O)(=O)Nc1ccc(-c2n[nH]c(Nc3ccccn3)c2C(N)=O)cc1OCC1CCCC1 [Compound 36, 3-(3-(cyclopentylmethoxy)-4-(ethylsulfonamido)phenyl)-5-(pyridin-2-ylamino)-1H-pyrazole-4-carboxamide]
Kd (RIP1): 1000 to 30000 nM
Kd (MLKL (full length)): 10 to 1000 nM

CCS(=O)(=O)Nc1ccc(-c2n[nH]c(Nc3ccccn3)c2C(N)=O)cc1OCc1cccc(Cl)c1 [Compound 38, 3-(3-((3-chlorobenzyl)oxy)-4-(ethylsulfonamido)phenyl)-5-(pyridin-2-ylamino)-1H-pyrazole-4-carboxamide]
Kd (RIP1): 1000 to 30000 nM
Kd (MLKL (full length)): < 10 nM

CCS(=O)(=O)Nc1ccc(-c2n[nH]c(Nc3cncc(C(F)(F)F)n3)c2C(N)=O)cc1 [Compound 44, 3-(4-(ethylsulfonamido)phenyl)-5-((6-(trifluoromethyl)pyrazin-2-yl)amino)-1H-pyrazole-4-carboxamide]
Kd (RIP1): > 30000 nM
Kd (MLKL (full length)): 10 to 1000 nM

CCS(=O)(=O)Nc1ccc(-c2n[nH]c(Nc3cccc(C(F)(F)F)n3)c2C(N)=O)cc1OCc1ccccc1 [Compound 46, 3-(3-(benzyloxy)-4-(ethylsulfonamido)phenyl)-5-((6-(trifluoromethyl)pyridin-2-yl)amino)-1H-pyrazole-4-carboxamide]
Kd (RIP1): > 30000 nM
Kd (MLKL (full length)): 10 to 1000 nM

NC(=O)c1c(-c2ccc(NS(=O)(=O)C(F)F)cc2)n[nH]c1Nc1ccccn1 [Compound 48, 3-(4-((difluoromethyl)sulfonamido)phenyl)-5-(pyridin-2-ylamino)-1H-pyrazole-4-carboxamide]
Kd (RIP1): > 30000 nM
Kd (MLKL (full length)): < 10 nM

CN(C)CCS(=O)(=O)Nc1ccc(-c2n[nH]c(Nc3cccc(C(F)(F)F)n3)c2C(N)=O)cc1 [Compound 51, 3-(4-((2-(dimethylamino)ethyl)sulfonamido)phenyl)-5-((6-(trifluoromethyl)pyridin-2-yl)amino)-1H-pyrazole-4-carboxamide]
Kd (RIP1): > 30000 nM
Kd (MLKL (full length)): 10 to 1000 nM

NC(=O)c1c(-c2ccc(NS(=O)(=O)Cc3ccc(Cl)cc3)cc2)n[nH]c1Nc1cccc(C(F)(F)F)n1 [Compound 60, 3-(4-(((4-chlorophenyl)methyl)sulfonamido)phenyl)-5-((6-(trifluoromethyl)pyridin-2-yl)amino)-1H-pyrazole-4-carboxamide]
Kd (MLKL (full length)): 10 to 1000 nM

CCOc1nccc(Nc2[nH]nc(-c3ccc(NS(=O)(=O)CC)cc3)c2C(N)=O)n1 [Compound 98, 5-((2-ethoxypyrimidin-4-yl)amino)-3-(4-(ethylsulfonamido)phenyl)-1H-pyrazole-4-carboxamide]
Kd (MLKL (full length)): < 10 nM

NC(=O)c1c(-c2ccc(NS(=O)(=O)Cc3ccc(OC(F)(F)F)cc3)cc2)n[nH]c1Nc1ccccn1 [Compound 135, 5-(pyridin-2-ylamino)-3-(4-(((4-(trifluoromethoxy)phenyl)methyl)sulfonamido)phenyl)-1H-pyrazole-4-carboxamide]
Kd (MLKL (full length)): 1000 to 30000 nM

NC(=O)c1c(-c2ccc(NS(=O)(=O)Cc3ccccc3)cc2)n[nH]c1Nc1ccccn1 [Compound 136, 3-(4-(phenylmethylsulfonamido)phenyl)-5-(pyridin-2-ylamino)-1H-pyrazole-4-carboxamide]
Kd (MLKL (full length)): 1000 to 30000 nM

CCS(=O)(=O)Nc1ccc(-c2n[nH]c(Nc3cnccn3)c2C(N)=O)cc1OC1CCCc2cc(F)ccc21 (stereo not drawn) [Compound 224, 3-{4-ethanesulfonamido-3-[(6-fluoro-1,2,3,4-tetrahydronaphthalen-1-yl)oxy]phenyl}-5-[(pyrazin-2-yl)amino]-1H-pyrazole-4-carboxamide]
Kd (MLKL (full length)): < 10 nM

CCS(=O)(=O)Nc1ccc(-c2n[nH]c(Nc3cnccn3)c2C(N)=O)cc1OCc1ccccn1 [Compound 261, 3-{4-ethanesulfonamido-3-[(pyridin-2-yl)methoxy]phenyl}-5-[(pyrazin-2-yl)amino]-1H-pyrazole-4-carboxamide]
Kd (MLKL (full length)): < 10 nM
